Experimental data from the supplement of paper PMC8047034.
Where a name gives a salt, the structure may show the parent alone. The list shows a part of the results. Repeats are few or missing, and single values can be far off.

Tested on: Ov4Carbo
Assay: log2 surviving fraction (library drug vs vehicle, or drug + carboplatin vs carboplatin alone; relative to plate median); ovarian cancer lines: OVCAR4 is platinum-sensitive and Ov4Carbo platinum-resistant; higher = more cell survival
Details: library drug concentration 10 µM; 7 days; carboplatin co-treatment 0 µM

SMILES	log2 surviving fraction
NC12CC3CC(CC(C3)C1)C2 [Amantadine hydrochloride (Symmetrel)]	0.265
CCC1(c2ccc(N)cc2)CCC(=O)NC1=O (stereo not drawn) [Aminoglutethimide (Cytadren)]	1.18
Clc1ccc(COC(Cn2ccnc2)c2ccc(Cl)cc2Cl)cc1 (stereo not drawn) [Econazole nitrate (Spectazole)]	-1.6
CC1CNc2c(cccc2S(=O)(=O)N[C@@H](CCCNC(=N)N)C(=O)N2CC[C@@H](C)C[C@@H]2C(=O)O)C1 (stereo partly drawn) [Argatroban]	1.41
Fc1ccc([C@@H]2CCNC[C@H]2COc2ccc3c(c2)OCO3)cc1 [Paroxetine HCl]	-5.5
O=P(O)(O)C(O)(Cc1cccnc1)P(=O)(O)O [Risedronic acid (Actonel)]	-0.269
C[C@](N)(Cc1ccc(O)c(O)c1)C(=O)O [Methyldopa (Aldomet)]	-0.72
CN1CCN(c2cc3c(cc2F)c(=O)c(C(=O)O)cn3-c2ccc(F)cc2)CC1 [Difloxacin HCl]	-0.161
C[C@H](CCC(=O)O)[C@H]1CC[C@H]2[C@@H]3[C@H](O)C[C@@H]4C[C@H](O)CC[C@]4(C)[C@H]3CC[C@]12C [Chenodeoxycholic acid]	0.309
Cc1ccc2c(Cl)cc(Cl)c(O)c2n1 [Chlorquinaldol]	-6.54
O=C1c2ccccc2C(=O)C1c1ccccc1 [Phenindione (Rectadione)]	0.339
CC(C)NC[C@@H](O)COc1ccc(CC(N)=O)cc1 [(R)-(+)-Atenolol]	-0.0391
CC(CCc1ccc(O)cc1)NCC(O)c1ccc(O)cc1 (stereo not drawn) [Ractopamine HCl]	-0.354
COc1ccc([C@H]2CNC(=O)C2)cc1OC1CCCC1 [S-(+)-Rolipram]	-0.406
O=C(O)c1cn(C2CC2)c2cc(N3CCNCC3)c(F)cc2c1=O [Ciprofloxacin (Cipro)]	-0.175
NCCS(=O)(=O)O [Taurine]	-2.08
CC(=O)Nc1cc([As](=O)(O)O)ccc1O [Acetarsone]	0.15

SMILES	log2 surviving fraction
Nc1ccc(/N=N/c2ccccc2)c(N)n1 [Phenazopyridine HCl]	0.0651
CCc1cc2c(cc1CC)CC(NC[C@H](O)c1ccc(O)c3[nH]c(=O)ccc13)C2 [Indacaterol Maleate]	-1.58
COCCc1ccc(OCC(O)CNC(C)C)cc1 (stereo not drawn) [Metoprolol tartrate]	0.569
COc1cc2nc(N3CCN(C(=O)c4ccco4)CC3)nc(N)c2cc1OC [Prazosin HCl]	-0.915
C[N+](C)(C)CCOC(N)=O [Carbachol]	0.0379
C[C@H](N[C@@H](CCc1ccccc1)C(=O)O)C(=O)N1CCC[C@H]1C(=O)O [Enalaprilat dihydrate]	0.608
CCOc1cc(CC(=O)N[C@@H](CC(C)C)c2ccccc2N2CCCCC2)ccc1C(=O)O [Repaglinide]	1.19
CCCCNc1ccc(C(=O)OCCN(C)C)cc1 [Tetracaine hydrochloride (Pontocaine)]	1.52
CC[C@H](C)[C@H](N)C1=N[C@H](C(=O)N[C@@H](CC(C)C)C(=O)N[C@H](CCC(=O)O)C(=O)N[C@H](C(=O)N[C@H]2CCCCNC(=O)[C@H](CC(N)=O)NC(=O)[C@@H](CC(=O)O)NC(=O)[C@H](Cc3cnc[nH]3)NC(=O)[C@@H](Cc3ccccc3)NC(=O)[C@H]([C@@H](C)CC)NC(=O)[C@@H](CCCN)NC2=O)[C@@H](C)CC)CS1 [Bacitracin]	0.945
CC(=O)O[C@@]12CO[C@@H]1C[C@@H](O)[C@@]1(C)C(=O)[C@H](O)C3=C(C)[C@@H](O)C[C@@](O)([C@@H](OC(=O)c4ccccc4)[C@H]21)C3(C)C [10-DAB (10-Deacetylbaccatin)]	-4.07
O=c1[nH]c(=O)n([C@H]2C[C@H](O)[C@@H](CO)O2)cc1I [Idoxuridine]	-1.81
CCOc1ccc2nc3cc(N)ccc3c(N)c2c1 [Ethacridine lactate monohydrate]	-7.61
CC(C)NCC(O)c1ccc(O)c(O)c1 (stereo not drawn) [Isoprenaline hydrochloride]	1.24
Cl.N=C(N)NCCC[C@H](N)C(=O)O [L-Arginine HCl]	-0.579
Cc1cccc(Nc2ccccc2C(=O)O)c1C [Mefenamic acid]	0.21
CCOc1cc(N)c(Cl)cc1C(=O)NCC1CN(Cc2ccc(F)cc2)CCO1 (stereo not drawn) [Mosapride citrate]	0.963
